From PubChem BioAssay AID686979 (National Center for Advancing Translational Sciences (NCATS), 2013)
Several values for one entry are separate records, joined by “and”; a condition that tells them apart may be missing. Equal values may be shown once. Among all 420,000 compounds or so, about 50,000 (12%) were called active. The shares of active, inactive and inconclusive entries below differ from those in the screen. The call rests on the fitted dose curve; in most records, active means well fitted inhibition curve with a large enough effect; inconclusive means small, poorly fitted or top-dose-only effect; inactive means flat fitted curve, though single readings scatter. Potencies beside an inconclusive call are fits to weak or partial responses and may not hold up.

Experiment: qHTS for Inhibitors of human tyrosyl-DNA phosphodiesterase 1 (TDP1): qHTS in cells in presence of CPT; further: nearly all actives have a fitted effect of over 55% in size
Settings: chicken DT40 Tdp1-/-;hTDP1 cells + 20 nM CPT, ATP luminescence, 48 h; series mostly up to 46.2 µM
Summary of the method: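 Cell growth measured by CellTiter-Glo luminescence after a minimum 48 h, 37 C compound exposure with 20 nM CPT in Tdp1-knockout DT40 cells stably expressing hTDP1, seeded 400/well; qHTS titration format.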
Potency means the concentration at half of the fitted maximal effect; tags describe the fitted curve by direction and shape.

Row | Structure (SMILES) | Potency
1 | CC(C)(C)c1nc(SCC(=O)Nc2nc3c(s2)CCCC3)c2ccccc2n1 | active: 14.6 µM
2 | NC(c1ccccc1)c1csc(Nc2ccc(C(=O)c3ccccc3)cc2)n1 (configuration not stated) | inconclusive: 29.1 µM [inhibitor, single point]
3 | CCOC(=O)[C@@H]1[C@H]2COc3ccccc3[C@H]2N2C(=O)N(c3ccc(C(F)(F)F)cc3)C(=O)[C@]12C | active: 18.4 µM
4 | CCC(CC)C(=O)N(C)c1c(C)nc2c(OCc3ccc(C#N)cc3)cccn12 | inconclusive: 29.1 µM [inhibitor, single point]
5 | COCCNC(=O)Nc1ccc2c(c1)N(C)C(=O)c1ccccc1S2 | inactive
6 | COc1cc(NC(=O)c2noc3c2CC(C)CC3)c(OC)cc1Cl (configuration not stated) | inactive
7 | Cc1cc(C)cc(Oc2nc(C(F)(F)F)nc3ccccc23)c1 | active: 18.4 µM
8 | Cn1c(N)c(C(=O)c2ccc(C#N)cc2)c(=O)n(C)c1=O | inactive
9 | Cc1onc(-c2ccccc2Cl)c1C(=O)OCC(=O)N1CCCCC1 | inactive
10 | CCCCCCCCN1C(=O)[C@H](CC(=O)NCc2cccc3ccccc23)C[C@@]2(C(=O)OCC)CCCC=C12 | inconclusive: 23.1 µM [inhibitor, single point]
11 | CCOC(=O)c1c(C)[nH]c(C(=O)OCC(=O)Nc2sc(C(=O)N(C)C)c(C)c2C(=O)OCC)c1C | inconclusive: 25.9 µM [inhibitor, single point]
12 | CCc1ccc(CNC(=O)CCn2nc(C)c3c(C)n(-c4ccccc4)nc3c2=O)cc1 | inactive and inconclusive: 13 µM [inhibitor, partial curve, poor fit]
13 | Cc1cccc(OCC(=O)N/N=C2/SCC(=O)N2Cc2ccco2)c1 | inconclusive: 20.6 µM [inhibitor, single point]
14 | COc1cccc(NC(=S)N(CCc2c(C)[nH]c3ccccc23)Cc2ccco2)c1 | inconclusive: 29.1 µM [inhibitor, single point]
15 | Cc1nn(CCCC(=O)Nc2ccccc2C(F)(F)F)c(=O)c2nn(-c3ccccc3)c(C)c12 | inconclusive: 29.1 µM [inhibitor, single point]
16 | CCc1noc(C)c1C(=O)N1CCN(S(=O)(=O)c2ccc(Cl)s2)CC1 | inactive
17 | CC(C)OCCCNC(=O)COc1ccc2oc3c(c2c1)CCCC3 | inconclusive: 11.6 µM [inhibitor, partial curve]
18 | CC(CNC(=O)Cn1cnc2c(OCc3ccccc3)ncnc21)c1ccccc1 (configuration not stated) | inconclusive: 23.1 µM [inhibitor, single point]
19 | CCn1c(SCC(=O)Nc2oc(C)c3c(C)n[nH]c(=O)c23)nc2sc(C)c(C)c2c1=O | inconclusive: 13 µM [inhibitor, partial curve]
20 | O=C(COC(=O)C1CC2C=CC1C2)Nc1cccc(S(=O)(=O)N2CCOCC2)c1 (configuration not stated) | inactive
21 | O=C1CC2(CCN(C(=O)COc3ccccc3)CC2)Oc2ccccc21 | inactive

Row | Structure (SMILES) | Potency
22 | CC1CCC(NC(=O)c2ccc(CSc3nc4ccncc4n3Cc3ccc(F)cc3)cc2)CC1 (configuration not stated) | inconclusive: 25.9 µM [inhibitor, single point]
23 | COc1ccc(OC)c(-c2nnc(SCC(=O)N3CCCc4ccccc43)o2)c1 | inconclusive: 23.1 µM [inhibitor, single point]
24 | CCOc1ccc(NC(=O)CSc2ccc(-c3ccccn3)nn2)cc1 | inconclusive: 29.1 µM [inhibitor, single point]
25 | CCOC(=O)C1OC1C(=O)NC(CC(C)C)C(=O)NCCC(C)C (configuration not stated) | inconclusive: 45.9 µM [inhibitor, single point]
26 | COc1ccccc1N(C(=O)c1ccco1)C(C(=O)NC1CCCC1)c1ccc(N2CCOCC2)cc1 (configuration not stated) | inactive
27 | COc1ccc(C(CC(=O)Nc2ncccc2C)N2Cc3ccccc3C2=O)cc1OC (configuration not stated) | inactive
28 | COc1ccc(N2CC(O)(c3ccc(F)cc3)[N+]3=C2CCCC3)cc1 (configuration not stated) | inconclusive: 23.1 µM [inhibitor, partial curve, poor fit]
29 | COc1cc(/C=C/c2ccc3cccc(O)c3n2)cc(OC)c1OC | inconclusive: 29.1 µM [inhibitor, single point]
30 | Cc1ccc(-c2nn(CC(C)(C)C)c3ncnc(N)c23)cc1 | active: 6.68 µM
31 | COc1cc(C(=O)OCC(=O)c2c[nH]c3ccccc23)ccc1OCC(=O)N1CCOCC1 | inconclusive: 29.1 µM [inhibitor, single point]
32 | COc1cccc(C(C)(O)c2nc(-c3cccc4cccnc34)cs2)c1 (configuration not stated) | inconclusive: 25.9 µM [inhibitor, single point]
33 | Cc1cccc(N2CCN(C(=O)c3ccc(Cl)c(S(=O)(=O)NCc4ccco4)c3)CC2)c1C | inconclusive: 29.1 µM [inhibitor, single point]
34 | Cn1c(=O)[nH]c(=O)c2c1nc(N1CCN(c3ccccc3)CC1)n2CCSc1ncccn1 | inconclusive: 29.1 µM [inhibitor, single point]
35 | CCCCNC(=O)CSc1nc2ccc(NC(=O)CSc3nnc(N)s3)cc2s1 | inconclusive: 20.6 µM [inhibitor, single point]
36 | COC(=O)CCN1CCC2CC1c1cc(-c3cccc(C)c3)ccc12 (configuration not stated) | inconclusive: 29.1 µM [inhibitor, single point]
37 | COc1cccc(-c2nc(CS(=O)(=O)CC(=O)N3CCN(c4ccccc4)CC3)c(C)o2)c1 | inconclusive: 29.1 µM [inhibitor, single point]
38 | CC1CC(C)CN(S(=O)(=O)c2ccc(NC(=O)CN3C(=O)NC(C)(c4ccccc4)C3=O)cc2)C1 (configuration not stated) | inactive
39 | Cc1cc(C)c2cc(C(=O)N3CCC(N4CCCCC4)CC3)[nH]c2c1 | inactive
40 | CN(C)C(CNC(=O)c1ccc(Cl)c(S(=O)(=O)N2CCCCCC2)c1)c1ccccc1 (configuration not stated) | inconclusive: 16.4 µM [inhibitor, single point]
41 | CCc1cc(C(=O)c2ccc(OC)cc2)c(NC(=O)CN2CCCC2)s1 | inconclusive: 29.1 µM [inhibitor, single point]
42 | CN(C)c1ccc(C(=S)Nc2ccccc2)cc1 | inconclusive: 20.6 µM [inhibitor, partial curve]
